Source: the supplement of paper PMC3334620
Over roughly 33,000 sequences, “E-score (-0.5 to 0.5)” has its median near -0.021; the highest 2% begin near 0.32. This is one part of the list.

Molecular target: T1, Zap1 (UniProt P47043)
T1 sequence: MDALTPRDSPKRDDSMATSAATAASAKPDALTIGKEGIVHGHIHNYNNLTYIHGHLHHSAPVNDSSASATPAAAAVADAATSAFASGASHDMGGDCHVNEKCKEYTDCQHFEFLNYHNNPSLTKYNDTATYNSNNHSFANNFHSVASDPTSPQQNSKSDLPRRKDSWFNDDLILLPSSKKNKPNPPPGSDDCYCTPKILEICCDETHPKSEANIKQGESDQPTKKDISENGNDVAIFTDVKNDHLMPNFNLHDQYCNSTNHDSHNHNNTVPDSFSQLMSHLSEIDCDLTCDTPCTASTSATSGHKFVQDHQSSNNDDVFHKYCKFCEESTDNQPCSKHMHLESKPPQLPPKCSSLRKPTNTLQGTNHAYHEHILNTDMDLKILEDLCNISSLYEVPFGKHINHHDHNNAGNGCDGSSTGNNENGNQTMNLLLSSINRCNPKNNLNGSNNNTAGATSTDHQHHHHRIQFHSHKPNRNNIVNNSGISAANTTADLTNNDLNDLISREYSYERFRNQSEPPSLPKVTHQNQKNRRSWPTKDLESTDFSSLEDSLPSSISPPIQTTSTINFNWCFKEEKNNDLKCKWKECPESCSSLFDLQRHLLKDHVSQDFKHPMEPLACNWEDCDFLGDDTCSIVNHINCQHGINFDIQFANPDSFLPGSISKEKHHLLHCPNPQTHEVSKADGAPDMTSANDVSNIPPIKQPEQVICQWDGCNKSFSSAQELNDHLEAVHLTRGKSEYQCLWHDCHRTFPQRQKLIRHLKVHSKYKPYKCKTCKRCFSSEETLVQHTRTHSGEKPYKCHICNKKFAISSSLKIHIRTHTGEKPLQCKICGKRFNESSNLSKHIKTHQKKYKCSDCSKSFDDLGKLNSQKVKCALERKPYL
Assay: PBM E-score (8-mer binding enrichment) (E-score (-0.5 to 0.5)); higher = stronger / more preferred TF binding; most listed sequences are background and not binding sites
Conditions: protein concentration: 200 nM; construct: GST-full length
Outline: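 Each ungapped eight-base word and its reverse complement, pooled, received an E-score from the Universal PBM Analysis Suite. Underlying scans, normalised with masliner, recorded fluorescent anti-GST bound to GST-tagged yeast transcription factors. These were applied at about 100-200 nM to universal all-10-mer Agilent arrays double-stranded by primer extension.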

| Sequence | PBM E-score |
| --- | --- |
| CGCTGGAC | -0.277 |
| AGAGTGGG | -0.0124 |
| ACTTCCGC | -0.0208 |
| CAGTTGGG | 0.0345 |
| ATAATCGA | -0.0285 |
| CAGTTCCC | 0.157 |
| ACGCATAC | -0.101 |
| ACCGTCGC | 0.045 |
| CGCAGTCA | -0.0913 |
| ACATGACT | -0.251 |
| CTATTGCA | 0.0274 |
| ACCTGTGG | 0.0592 |
| GTACAAGA | 0.0938 |
| AGCTGTTA | -0.0623 |
| CTCCTAGA | -0.279 |
| CAAATAGA | 0.0322 |
| AGAACCCT | 0.321 |
| AAGCTGTA | 0.138 |
| ATTGAGCA | -0.169 |
| AAAATGAC | 0.122 |
| ACCCTCGA | 0.143 |
| CTTCAATC | -0.121 |
| ACATTAAT | 0.134 |
| CGGAGGGC | -0.25 |
| AACCTAGC | -0.0738 |

| Sequence | PBM E-score |
| --- | --- |
| AGAGAGAG | -0.239 |
| CCGTTGGA | -0.122 |
| ATAACCCA | 0.472 |
| GATTGTCA | -0.0124 |
| TCCGACGA | -0.11 |
| TGCGTCAA | -0.105 |
| CATTGCAC | 0.062 |
| CAATTCCC | -0.0011 |
| ACCAATAA | 0.0975 |
| CTGCGTAA | 0.0348 |
| CACCCAAA | 0.255 |
| CTTTTGCA | 0.194 |
| AAATTCAG | -0.036 |
| TCCAGGAA | -0.0442 |
| CCATAGGA | 0.0329 |
| ATCCAGAG | -0.019 |
| GAACCACC | 0.132 |
| AGTCAGCG | -0.219 |
| GTGCAAAA | -0.0534 |
| TCGCAAGA | -0.0187 |
| TCCCCTAA | 0.0699 |
| CTTGACGC | -0.107 |
| GTCGGAGA | -0.0786 |
| ACTGCTGC | -0.147 |
| ACTTGCGG | -0.312 |

| Sequence | PBM E-score |
| --- | --- |
| ACCAGCTG | -0.0716 |
| AAGTCAGG | 0.00226 |
| TACGTACA | -0.0868 |
| CATATCAA | 0.0465 |
| CGCTAGGC | -0.241 |
| GGCCCCAA | 0.107 |
| CAGGTATA | 0.16 |
| AAGATAGA | 0.0134 |
| AACGCTGG | -0.174 |
| ACGTATTC | -0.0689 |
| AGCCGAAT | -0.00941 |
| GCTTCGCC | -0.31 |
| CCTTATCG | 0.158 |
| AGGTACGC | 0.107 |
| AGTAATGC | -0.0647 |
| AACCGAGA | 0.195 |
| CTAGCGGA | -0.16 |
| GTAAACCA | 0.138 |
| CGAGGCTC | -0.182 |
| CACGCGGG | 0.0265 |
| ATTCGTAG | -0.0712 |
| CTCCCCAC | -0.136 |
| ATTTTCAG | 0.06 |
| GCTAGCCC | -0.228 |
| TCGACAAA | 0.0744 |

| Sequence | PBM E-score |
| --- | --- |
| ATCCTCTA | -0.118 |
| GGTAAGAA | -0.00627 |
| CATGATGC | -0.127 |
| AACGTCGG | -0.15 |
| ATAGCTTA | -0.0241 |
| ATGGCTAG | -0.0721 |
| CGTGTGCC | 0.00438 |
| ATGGCGCG | -0.0417 |
| GCAGCCCC | -0.0536 |
| AGGAGACC | -0.0191 |
| CCGTGCGC | -0.0384 |
| ACCTTACG | 0.226 |
| GGATATTA | 0.156 |
| CAACTCAG | 0.0151 |
| AGATGCAT | -0.158 |
| GAGGAGGA | -0.316 |
| CCCTGCCG | -0.0398 |
| AATTATTG | 0.0454 |
| ACCGGTAA | 0.286 |
| GTGTCGTA | 0.0847 |
| AGCCAATG | -0.0742 |
| ACCGTTAG | 0.139 |
| CCTATTAA | 0.15 |
| AATATGAC | -0.0299 |
| CTCTCAGA | -0.229 |

| Sequence | PBM E-score |
| --- | --- |
| ACTCGTGG | 0.0689 |
| CAGATAAC | 0.308 |
| GCCGTACA | 0.014 |
| CCCGCATA | 0.16 |
| AGAGAGGA | -0.245 |
| CTTAAGCA | -0.0209 |
| ATTTCTGC | 0.0333 |
| GTGAGAAA | 0.0979 |
| CCGCCAAC | -0.121 |
| CCACGGGG | 0.0374 |
| AAAGAGTT | -0.0729 |
| GTTAGAAA | -0.062 |
| AAACAACC | 0.313 |
| AAAGTCCG | -0.158 |
| ACCTCCAT | 0.168 |
| CCCGTTCG | -0.0827 |
| AGACTGAA | -0.0644 |
| AACTTGGT | 0.143 |
| CACGAGAC | -0.0591 |
| CCGAACTA | 0.133 |
| ATTCAGAG | -0.1 |
| GTCGGTCA | -0.173 |
| ACGCCTAG | -0.265 |
| AAACGGTT | 0.213 |
| CGGGTCAC | 0.374 |

| Sequence | PBM E-score |
| --- | --- |
| CGTATCAG | -0.0356 |
| AGAATCGA | -0.101 |
| CAACTAGC | 0.0515 |
| GTGCGTCA | -0.155 |
| CTTTTAAC | 0.0885 |
| GTGCCGTA | 0.114 |
| GGTACGCA | 0.141 |
| CGGACAGA | -0.0523 |
| CCCGGACA | 0.031 |
| TAACGTAA | 0.0847 |
| CTTATGTA | -0.0766 |
| ATCCAGCC | -0.15 |
| ACACGCGA | -0.132 |
| TAGATTCA | -0.0579 |
| CTGCTAAA | -0.0363 |
| GCGGGACA | -0.167 |
| AGTTACAT | -0.0596 |
| CGTGGCGC | -0.252 |
| AAACGTAA | 0.0854 |
| ATATCACA | 0.0153 |
| AGATGGTA | 0.107 |
| CACGGGTA | 0.237 |
| CAAGGGAC | -0.0499 |
| AGCGTCTG | -0.138 |
| ACCCTTAG | 0.432 |

| Sequence | PBM E-score |
| --- | --- |
| ATCGTTCC | -0.259 |
| TATTCAGA | 0.11 |
| CTTAGCGC | -0.0118 |
| CAGTAAGG | -0.0101 |
| AAACGAAT | 0.123 |
| AGAACGAC | -0.0104 |
| ACCGTGCT | 0.0216 |
| GGACCGCC | -0.0875 |
| CTCCTGAC | -0.0951 |
| TCGGATCA | 0.00696 |
| CGCTCGAC | -0.185 |
| CAGGTATG | 0.0951 |
| AGTATTGG | -0.0741 |
| GAGTTCAC | 0.025 |
| AAAAAGCA | 0.0246 |
| TACCAATA | 0.0646 |
| AAAGGATG | 0.0533 |
| AAAGTCAC | -0.0296 |
| CCACATAG | -0.0478 |
| TCACTACA | 0.091 |
| CCCCCTAA | -0.277 |
| AACTTCAC | 0.117 |
